Measurements from the supplement of paper PMC11417369.
± gives the standard deviation of the averaged measurements. Some of the results follow.

Tested on: PfAP2-I AP2 domain 3 (GST-tagged)
Test: gcPBM binding intensity (ln(normalized median fluorescence intensity)); higher = stronger DNA binding
How it was run: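 DNA-binding domains from P. falciparum, fused to GST and produced in E. coli, were put on an Agilent 4 × 180k double-stranded probe array for 1 h in 1× PBS holding 1% milk, 0.2 mg/ml BSA, 0.5% salmon testes DNA and 0.03% Triton X-100. Probes were primer-extended, 36 bp long and drawn from intergenic genomic regions, with negative controls included. After Alexa488 anti-GST antibody detection and a 488 nm scan, binding intensity was set as the highest Masliner-normalised natural-log median intensity across replicate spots of either probe orientation.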

In order of rising “gcPBM binding intensity (ln)” value:
1. TAATATTTTTATTATTAGAATTGTATATGTTTAATA [CACACA_negctrl_site1833]  7.13 ± 0.38
2. AATATTAAAATATAAACACACAAAATTCAATTATAT [CACACA_site5971]  7.46 ± 0.81
3. AAAAAATATTTATGTTCACACATTTTATATATGATA [CACACA_site4821]  7.57 ± 0.53
4. TATAAATATGTATATACACACTTTTAATATTCATAA [CACACA_site7856]  7.59 ± 0.52
5. TCTTTGTTTTTTTTTTTTAAACAAAATCATCAAAGG [XGTACX_negctrl_site192]  7.6 ± 0.49
6. ACAAAATGTAGATATTGTACATATTGTAGATATTGT [XGTACX_site7619]  7.61 ± 0.48
7. ATTATATATATATAAACACACAAATATTTTTATATA [CACACA_site5005]  7.61 ± 0.4
8. AATAAAAAAGAATATACACACATAAATATAAAATAT [CACACA_site683]  7.62 ± 0.81
9. TAATGTTGTTTCTGAGGTACACAATTTTTTTTATTT [XGTACX_site8035]  7.62 ± 0.39
10. ATTATATATAAATATACACACATATATAAAATACAT [CACACA_site5298]  7.64 ± 0.5
11. CTTCCTTAGGAATGTACACACATATATAATATGTTG [CACACA_site461]  7.67 ± 0.39
12. TTTTCTAAATATTATAGTACTCTTAATAATATTAAC [XGTACX_site4222]  7.68 ± 0.4
13. AAATATATATTTCTTAGTACATATGTATTTTTTTTT [XGTACX_site938]  7.68 ± 0.46
14. TTATTTTTTTTTTATTGTACTAGGAAAATTTCGATA [XGTACX_site702]  7.71 ± 0.36
15. AAATATTTTTAAAGAAGTACTTTTTAAAAATAATCT [XGTACX_site4897]  7.71 ± 0.49
16. TACATACAGATATATACACACATATAAAATATAGAT [CACACA_site6319]  7.75 ± 0.45
17. ATGAATAAATGAACATGTACATATATATATATATTA [XGTACX_site5005]  7.76 ± 0.47
18. TAATATTAATCCTAGTGTACATTAATTTATATGTAT [XGTACX_site3583]  7.78 ± 0.47
19. AGATTATAAAATTCTACACACATATATACCTATATA [CACACA_site5848]  7.78 ± 0.56
20. TTAATGAAATATTATACACACAAAAAAATAATTTTA [CACACA_site4231]  7.78 ± 0.22
21. ATTTAAGATTTAATCACACACATATAGATTATAGAC [CACACA_site7383]  7.8 ± 0.67
22. AATTAAAAAGAAAAAAGTACATATTTTTTTAAAAAA [XGTACX_site7384]  7.82 ± 0.39
23. AAATTAAAAAGAGCTTGTACAGATGTATACATAATA [XGTACX_site3882]  7.84 ± 0.56
24. TATATGAAGCTATAGACACACATATAAAAATAGAAT [CACACA_site1313]  7.84 ± 0.67
25. TGCGTATTCTTATTAGGTACACATATTCGTGATAAT [XGTACX_site5681]  7.85 ± 0.27
26. ACATAACTGATATATACACACAATACAAATATAGAT [CACACA_site7328]  7.85 ± 0.51
27. TTTATATGTATTAAGTGTACACATATAATGTGTTTG [XGTACX_site6629]  7.85 ± 0.071
28. AAAATAATTGTTTACACACCCATTTGTAATTTTACC [CACACA_site3614]  7.9 ± 0.67
29. TTTATAATTCTTACAACACACAATGTACATTTATAT [CACACA_site1261]  7.92 ± 0.49
30. TTTGACAAATTATTGTGTACACAATATTATTATATA [XGTACX_site8320]  7.92 ± 0.23
31. TATAAGAGGATATATACACACAAAAATATGTACAGT [CACACA_site6885]  7.92 ± 0.52
32. TACATATATATATGTATATATATATATATATAAATA [XGTACX_negctrl_site351]  7.94 ± 0.45
33. ACCATACAGAATAATGCATGTTCCTTTTTATGAATA [TGCATGCA_site995]  7.95 ± 0.67
34. ACCTATATAAGTTATACACACAAATATAGATATATA [CACACA_site7356]  7.96 ± 0.35
35. ATGAAGAAGTGTAAATGTACATTTTATGTAGAACAA [XGTACX_site6925]  7.97 ± 0.62
36. GACATATTAGAAGGGTGTACATACTTTTAATCATTT [XGTACX_site1698]  8 ± 0.21
37. AAGATACACCTTTTTAGTACTTACATTTTTTTTATT [XGTACX_site1373]  8 ± 0.65
38. TACACTTTTTTTTGTACACACTAAAAAGATTAACAA [CACACA_site6037]  8.05 ± 0.21
39. AAAAAAATAAAGGATATACACACTAATTATATATAT [CACACA_site2812]  8.09 ± 0.49
40. AATTTATATGTTTTGTGTACACAATTTATTAAATTA [XGTACX_site6448]  8.1 ± 0.3
41. GCGTATACTTGTAACGGTACACAGGAAATTATAGAA [XGTACX_site507]  8.18 ± 0.89
42. TTTTCTTACTATTGTAGTACAATATTATATTCTTTT [XGTACX_site1925]  8.21 ± 0.26
43. ATTCATATATTTATTGCATGCAAAGTAAAATAAATA [TGCATGCA_site307]  8.23 ± 0.67
44. TTTTTTTTTTGATGAGCACACATGTTTTTTCTTAGA [CACACA_site3171]  8.24 ± 0.65
45. TATATATATGGACACACACACACCAAAGCGTAGCGC [CACACA_site4209]  8.27 ± 0.57
46. CCAACATAGAGGGGCACACACATATATACCTAAAAA [CACACA_site5088]  8.3 ± 0.28
47. TTTACAGAAAGTTACATACACACTAATATTTACACC [CACACA_site1009]  8.44 ± 0.23
48. ATAAAAGGAATATTTGCATGTGGTAGTACATAACAT [TGCATGCA_site978]  8.47 ± 0.29
49. TTAACAAAATATAGCACACATAAATATATATTTATG [CACACA_site351]  8.57 ± 0.11
50. CTGTGTTTTGGTTGTACACACGCTACATTCTATATT [CACACA_site2698]  8.72 ± 0.13
51. TACAGACAGAAATGCACACACATATTTATATTTATA [CACACA_site7139]  9.025 ± 0.035
52. AATAAATATATATACACACCCATATATATATATATA [CACACA_site2595]  9.16 ± 0.53
53. ATATATATATATATGTGTACTAATAAGGTTAAATAA [XGTACX_site1535]  9.29 ± 0.23
54. AAGAGAAAAATATGGTTGCACTAAAAATATATATTT  9.51 ± 0.13
55. TATACTTGTAAATGCACACATAAGATGCGACTAATG [CACACA_site2118]  9.8 ± 0.38
56. TAAAAAATTAATAAAGTGCATAAATATTACAATATT  10.3 ± 0.4
57. AAATGTGCATTATGTTGTACAGTCGAAATTTTTTTT [XGTACX_site3812]  11.1 ± 0.62
